Measurements as given in PubChem BioAssay AID504332 (National Center for Advancing Translational Sciences (NCATS), 2011).
Screen size: about 350,000 compounds; about 31,000 (8.9%) were called active. This list was built around the results that the source calls inconclusive (neither active nor inactive); the mix of calls is not that of the screen. Calls follow the shape of the dose curve; as a rule, active = well fitted inhibition curve with a large enough effect; inconclusive = small, poorly fitted or top-dose-only effect; inactive = no such curve, though single readings can be large or run the other way. Potencies beside an inconclusive call are fits to weak or partial responses and may not hold up.

What follows are compounds tested against Histone-lysine N-methyltransferase EHMT2 (Homo sapiens) (UniProt Q96KQ7) (assay: qHTS Assay for Inhibitors of Histone Lysine Methyltransferase G9a). Details: G9a H3K9 monomethylation, AlphaScreen, 2 h; activity, negative = inhibition: at 59 µM (top of the series) unless noted.
In short: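 Step 1: enzyme (final 20 nM) with compound, 15 min RT. Step 2: substrate peptide 500 nM and SAM 20 uM, 2 h RT. Step 3: anti-H3K9me1 antibody and AlphaScreen beads, 10 min, then plate read.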
% is scaled to controls: 0 for no effect and ±100 for the full control effect; potency is read from the fitted curve at half-maximal effect; tags tell the direction and shape of the fitted curve.
Also: nearly all actives have a fitted effect of over 75% in size.

UniProt Q96KQ7, sequence (Q96KQ7 whole entry, looked up): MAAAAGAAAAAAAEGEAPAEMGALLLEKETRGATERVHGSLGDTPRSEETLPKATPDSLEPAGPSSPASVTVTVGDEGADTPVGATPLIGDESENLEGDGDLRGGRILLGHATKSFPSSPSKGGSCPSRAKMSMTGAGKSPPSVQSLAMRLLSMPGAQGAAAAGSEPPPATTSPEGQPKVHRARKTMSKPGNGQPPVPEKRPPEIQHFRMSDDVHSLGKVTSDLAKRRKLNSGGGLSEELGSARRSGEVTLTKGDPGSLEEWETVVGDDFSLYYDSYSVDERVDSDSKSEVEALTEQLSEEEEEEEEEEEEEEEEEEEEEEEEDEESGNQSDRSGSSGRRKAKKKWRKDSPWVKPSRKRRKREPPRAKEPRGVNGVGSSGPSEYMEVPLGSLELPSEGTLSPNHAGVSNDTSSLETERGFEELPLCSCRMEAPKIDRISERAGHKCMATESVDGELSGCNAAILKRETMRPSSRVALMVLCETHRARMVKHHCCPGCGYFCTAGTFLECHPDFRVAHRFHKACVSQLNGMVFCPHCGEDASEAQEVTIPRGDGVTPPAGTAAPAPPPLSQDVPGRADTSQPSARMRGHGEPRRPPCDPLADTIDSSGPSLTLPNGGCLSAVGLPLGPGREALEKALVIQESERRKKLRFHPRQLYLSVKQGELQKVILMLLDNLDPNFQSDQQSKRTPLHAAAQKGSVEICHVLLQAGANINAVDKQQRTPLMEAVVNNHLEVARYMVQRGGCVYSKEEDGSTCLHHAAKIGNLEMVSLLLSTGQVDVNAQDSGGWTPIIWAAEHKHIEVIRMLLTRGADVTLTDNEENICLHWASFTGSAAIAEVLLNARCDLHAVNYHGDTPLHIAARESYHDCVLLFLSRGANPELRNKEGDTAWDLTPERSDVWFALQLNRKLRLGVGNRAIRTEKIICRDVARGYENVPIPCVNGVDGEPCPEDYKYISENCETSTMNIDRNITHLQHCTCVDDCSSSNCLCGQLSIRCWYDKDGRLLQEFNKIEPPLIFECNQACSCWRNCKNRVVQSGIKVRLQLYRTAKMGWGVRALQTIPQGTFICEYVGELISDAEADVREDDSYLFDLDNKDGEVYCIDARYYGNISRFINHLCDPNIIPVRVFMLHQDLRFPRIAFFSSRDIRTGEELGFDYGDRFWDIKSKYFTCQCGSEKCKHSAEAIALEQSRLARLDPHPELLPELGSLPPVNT

Row | Structure (SMILES) | Potency | activity, negative = inhibition
1 | COC(=O)c1ccc(NC(=O)C(=O)N2CCCC2)cc1 | inconclusive: 44.7 µM [inhibitor, partial curve, poor fit] | –
2 | Cc1ccc(-c2nnn(CC(=O)N(Cc3cccs3)C(C(=O)NC3CCCC3)c3ccco3)n2)o1 (centres undefined) | inconclusive: 50.1 µM [inhibitor, partial curve] | –
3 | COc1ccc(-n2c(-c3cc(-c4ccccc4)sc3N)n[nH]c2=S)cc1 | – | inactive: 0.709% [at 102 µM]
4 | CCOc1ccc(NC(=O)Cc2cccc3ccccc23)c([N+](=O)[O-])c1 | inconclusive: 28.2 µM [inhibitor, single point] | –
5 | O=C(O)c1ccc2nc(C(F)(F)F)[nH]c2c1 | – | inactive: -3.93%
6 | COc1ccc2c(c1OC)C(=O)N(c1ccc(OCc3ccccc3)cc1)C2=O | – | inactive: -11.3% [at 102 µM]
7 | Cc1cc(O)c(-c2n[nH]c3c2C(c2cccc(O)c2)N(Cc2cccnc2)C3=O)cc1Cl (centres undefined) | – | inactive: -45.8% [at 12.7 µM]
8 | Cc1cccc(C)c1NC(=O)CN(C)S(=O)(=O)c1ccc2[nH]c3c(c2c1)CCCC3 | active: 14.1 µM | –
9 | O=C(CC1N=C2c3ccccc3N=C(SCC(=O)Nc3ccccc3F)N2C1=O)NCc1ccc2c(c1)OCO2 (centres undefined) | active: 12.6 µM | –
10 | CC(C)COc1ccc(C(=O)N2CCC(c3nc4ccccc4s3)CC2)cc1 | – | inactive: -10.2%
11 | Cc1ccc2occ(CC(=O)Nc3c(C(=O)Nc4ccc(Cl)cc4)oc4ccccc34)c2c1 | – | inactive: 0.0059%
12 | Cc1ccc(/C=C2\C(=N)N3N=C(CC(=O)N4CCOCC4)SC3=NC2=O)o1 | active: 56.2 µM | –
13 | Cc1nc(NC(=O)CSc2nnc(-c3ccncc3)n2C)sc1C | inconclusive: 44.7 µM [inhibitor, partial curve] | –
14 | Cc1ccc(CSCCNC(=O)CN(c2cccc(C)c2C)S(=O)(=O)c2ccccc2)cc1 | inconclusive: 3.98 µM [inhibitor, partial curve] | –
15 | COc1ccc(C(=O)NC2CCCCCC2)cc1S(=O)(=O)N1CCCC1 | inconclusive: 44.7 µM [inhibitor, partial curve, poor fit] | –
16 | COc1ccccc1Nc1nc(-c2ccc3c(c2)NC(=O)CO3)cs1 | inconclusive: 56.2 µM [inhibitor, single point] | –
17 | NC(=O)c1cc[n+](CC(=O)NC(=O)Nc2ccccc2)cc1 | inconclusive: 6.31 µM [inhibitor, single point] | –
18 | CCCOCc1cc(CN2CCN(c3ccccc3OC)CC2)c(O)c2ncccc12 | inconclusive: 39.8 µM [inhibitor, partial curve, poor fit] | –
19 | CCOC(=O)c1c(NC(=O)C(C)Sc2cn(CCNC(=O)c3ccc(OC)cc3)c3ccccc23)sc2c1CCC2 (centres undefined) | inconclusive: 4.47 µM [inhibitor, partial curve] | –
